“And” between values parts separate entries of the source, which are not always exact repeats. Identical values can stand only once. The list shows a part of the results. Shown are side measurements of this screen, not its main read-out; they come without a call.
What was measured:
Experiment in all cases: Primary Screen for Target Class Profiling of Small Molecule Inhibitors of Methyltransferases
[1] = biological target: Glycine N-methyltransferase (Homo sapiens) (UniProt Q14749); settings: purified enzyme, MTase-Glo SAH luminescence; measured here: GNMT inhibition; at 40 µM; stronger effect = lower value
How it was run: (§1)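 Each enzyme was assayed with SAM and its substrate. SAH formation detected by MTase-Glo luminescence; single-point 40 uM screen[…].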

[2] = biological target: Guanidinoacetate N-methyltransferase (Homo sapiens) (UniProt Q14353); settings: purified enzyme, MTase-Glo SAH luminescence; measured here: GAMT inhibition; at 40 µM; stronger effect = lower value
How it was run: as §1

[3] = biological target: Histamine N-methyltransferase (Homo sapiens) (UniProt P50135); settings: purified enzyme, MTase-Glo SAH luminescence; measured here: HNMT inhibition; at 40 µM; stronger effect = lower value
How it was run: as §1

[4] = biological target: Nicotinamide N-methyltransferase (Homo sapiens) (UniProt P40261); settings: purified enzyme, MTase-Glo SAH luminescence; measured here: NNMT inhibition; at 40 µM; stronger effect = lower value
How it was run: as §1

[5] = biological target: Phenylethanolamine N-methyltransferase (Homo sapiens) (UniProt P11086); settings: purified enzyme, MTase-Glo SAH luminescence; measured here: PNMT inhibition; at 40 µM; stronger effect = lower value
How it was run: as §1
% is set by controls: 0 for no effect and ±100 for the full control effect.

| Compound | activity change, negative = inhibition [1] | activity change, negative = inhibition [2] | activity change, negative = inhibition [3] | activity change, negative = inhibition [4] | activity change, negative = inhibition [5] |
| --- | --- | --- | --- | --- | --- |
| Cc1ccc(Cn2c(=O)c3ccccc3n3c(=O)n(Cc4cccc(C)c4)nc23)cc1 | 4.31% | 0% | 4.54% | 1.85% | 2.34% |
| COC(=O)[C@]1(Cc2ccc(O)c(CC=C(C)C)c2)OC(=O)C(O)=C1c1ccc(O)cc1 | -0.945% | 3.83% | 1.91% | -12.3% | 1.88% |
| O=C1CCc2cc(S(=O)(=O)Nc3ccc(F)c(Cl)c3)c(F)cc2N1 |  | -11.8% |  | -18.3% | -5.56% |
| CC(=O)O[C@@H]1CC(C)=C2[C@H]1[C@H](C)CC[C@H]2/C=C(\C)C(=O)O | 0% | -4.76% | 1.44% | -18.6% | 2.33% |
| Cc1ccc(NC(=O)N2CCCC(c3nnc(CN(C)C)n3C)C2)cc1C (centres undefined) | -3.38% | -6.33% | -1.52% | -4.58% | -0.49% |
| COc1ccc(OC)c([C@@H]2C[C@H](NC(C)=O)C[C@H](Cc3ccccc3)O2)c1 | -0.18% | 3.99% | 2.19% | -1.59% | 2.91% |
| C=C(C(=O)O)[C@@H]1CC[C@@]2(C)CCC[C@@](C)(O)[C@@H]2C1 | 4.49% | 4.81% | 10.6% | -7.78% | -0.138% |
| CCn1ccnc1CN(C)C(=O)c1ccc2oc(-c3ccc(C(F)(F)F)cc3)nc2c1 | -4.21% | -0.848% | -1.68% | -5.57% | -1.94% |
| Cc1ccc(CN2C(=O)CSc3c(c4ccccc4n3C)C2C(=O)NCc2ccccc2)cc1 (centres undefined) | 7.06% | 0% | 2.59% | 3.15% | 2.95% |
| C=C1C(=O)OC2CC(C)=C(C(C)CCCO)C(O)C12 (centres undefined) | -3.94% | -4.4% | 4.38% | -14.8% | -6.78% |
| O=S(=O)(NCCn1c(CCc2ccccc2)nc2ccccc21)c1ccc(C2CCCCC2)cc1 | -2.41% | -1.37% | -3.39% | -7.57% | -3.73% |
| CS(=O)(=O)c1ccccc1N1CCN(c2nc3c(c(=O)[nH]2)CSCC3)CC1 | -12.2% | 7.66% | -20.3% | -16.6% | -2.41% |
| COC[C@@H](c1ccc(C(F)(F)F)cc1)N1CCN(C2(C)CCN(C(=O)c3c(C)ncnc3C)CC2)C[C@@H]1C |  | 2.75% |  | -16.8% | 0.585% |
| CC(C)N(C(=O)c1ccccc1-c1cc(NC2CC2)nc(N)n1)C(C)C | -8.26% | -8.93% | -6.93% | -10.4% | -6.84% |
| Cc1ccc(C)c(N2CCN(C(=O)c3ccc(Nc4nc5ccccc5n5nnnc45)cc3)CC2)c1 | -8.18% | 0.407% | 6.5% | 7.73% | -1.11% |
| O=C(O)CNC(=O)C(CS)Cc1ccccc1 (centres undefined) | -70.7% | 14.5% | 8.79% | 0.256% | 6.6% |

| Compound | activity change, negative = inhibition [1] | activity change, negative = inhibition [2] | activity change, negative = inhibition [3] | activity change, negative = inhibition [4] | activity change, negative = inhibition [5] |
| --- | --- | --- | --- | --- | --- |
| CSCCC(NS(=O)(=O)c1ccc2c(c1)oc(=O)n2C)C(=O)N1CCN(c2ccc(C)cc2)C(C)C1 (centres undefined) | -4.32% | 0.374% | -3.74% | -7.13% | -5.43% |
| Cn1ncc2c(N3CCN(S(N)(=O)=O)CC3)nc(C3CCCC3)nc21 | -34.4% | -27.5% | -43.9% | -70.9% | -26.3% |
| Cc1onc(-c2ccccc2)c1C(=O)N[C@@H]1C(=O)N2[C@@H]1SC(C)(C)[C@@H]2C(=O)O | 1.59% and 5.72% | 6% and 7.12% | 2.91% and 4.05% | -13.1% and -9.89% | -3.67% and 0.45% |
| COc1cccc(CN2CCc3nn(Cc4ccccc4)c(=O)n3CC2)n1 | -1.43% | -0.078% | -0.125% | -0.678% | -2.64% |
| CC(C)OCCCNC(=O)C1c2c(n(C)c3ccccc23)SCC(=O)N1Cc1cccs1 (centres undefined) | 5.46% | 4.64% | -2.75% | 1.31% | 0.803% |
| CC(C)C(=O)N1CCn2c(nnc2C2CCN(Cc3cc(Cl)ccc3F)C2)C1 (centres undefined) | -4.94% | -7.04% | -2.57% | -9.59% | -7.61% |
| O=C(OC[C@H]1O[C@H](O[C@]2(CO)O[C@H](CO)[C@@H](O)[C@@H]2O)[C@H](O)[C@@H](O)[C@@H]1O)c1ccc(O)cc1 | 3.9% | 2.51% | 6.75% | -9.03% | -3.96% |
| Cc1ccc(NS(=O)(=O)c2ccc3[nH]c4c(c3c2)CCCC4)c(Br)c1 | 3.75% | 1.12% | 3.05% | -6.52% | 2.94% |
| COc1ccc(OC)c(S(=O)(=O)N2CCC(N3C[C@H](OC)[C@@H]3c3ccncc3)CC2)c1 | -5.87% | 4.19% | -5.2% | -5.66% | -4.67% |
| CN(C)C[C@@H]1CN(Cc2ccncc2)C[C@H]1NC(=O)Cc1ccsc1 | -5.11% | -1.08% | -0.676% | -4.96% | -11.4% |
| CN(C)[C@@H](CCOc1cccc2ccccc12)c1ccccc1 |  | 13.1% |  | -9.29% | -0.568% |
| Cc1c(Cl)cccc1N1C(=O)c2cc(C(C)(C)C)nn2CC1(C)C(=O)NCc1ccccc1 (centres undefined) | 7.93% | 0% | 7.83% | 5.63% | 2.69% |
| C=C1CC[C@@H]2[C@](C)(CO)[C@H](O)CC[C@@]2(C)[C@@H]1C/C=C1/C(=O)OCC1O (some centres undefined) | -3.45% | 0.125% | 5.63% | -12.3% | -49.4% |
| Cc1c(Cl)cccc1N1C(=O)c2cc3ccccc3n2CC1(C)C(=O)NCCC(C)C (centres undefined) | 8.28% | 0.319% | 7.59% | 9.29% | 3.48% |
| Cc1ccccc1CNC(=O)Cn1ccc2cc(S(=O)(=O)N3CCC(C)CC3)ccc21 | 2.92% | 0% | -3.68% | 1.94% | 1.67% |
